# Test results published in PubChem BioAssay (NCATS).
# Several values for one entry are separate records, joined by “and”; a condition that tells them apart may be missing. Identical values can stand only once. The inconclusive results got no clear call from the source; some entries with a clear call stand among them for comparison. Potencies of inconclusive entries are doubtful fits and often do not repeat. Activity calls are given as the source filed them. The call rests on the fitted dose curve; in most records, active means well fitted cell-killing curve with a large enough effect; inconclusive means small, poorly fitted or top-dose-only effect; inactive means flat fitted curve, though single readings scatter.
# Test: Cellular viability qHTS for adrenocortical cancer (ACC) cell line SW-13 (AID 1963989); further: nearly all actives have a fitted effect of over 65% in size;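 on activity (max response): cells grown in serum-free medium with ITS supplement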
# Details: SW-13 ACC cells viability, CellTiter-Glo, 48 h; activity (max response): stronger effect = lower value
# Text: PI: Naris Nilubol, MD Surgical Oncology Program, National Cancer Institute (NCI) National Institute of Health (NIH), Bethesda, Maryland Adrenocortical cancer (ACC) is a rare malignancy with poor survival outcomes and few treatment options. Currently, mitotane is the only FDA-approved therapy for ACC. Although adjuvant radiation therapy is rarely utilized, it has the potential to improve survival in select cases. Through a quantitative high-throughput drug screen (qHTS), we identified auranofin (AF), a thioredoxin reductase (TXNRD) inhibitor, as a promising candidate drug. This study aims to evaluate whether AF can enhance the efficacy of radiation therapy in the treatment of ACC. Two human ACC cell lines, SW-13 and NCI-H295R, were screened using the National Center for Advancing Translational Sciences (NCATS) Pharmaceutical Collection (NPC) and the Mechanism Interrogation PlatE (MIPE) library (~4,991 compounds). CellTiter-Glo (Cat # G7570, Promega, Madison, WI) was utilized to measure cell viability. Described herein are the results of the corresponding viability assay.
# PROTOCOL TABLE (as described by Inglese J, Shamu CE and Guy RK. 2007) SEQUENCE No. (e.g., 1, 2, 3, etc.); […] (e.g., Cells, Incubation, Reagent, etc.); VALUE; DESCRIPTION. 1; Cells; 5 uL; white, solid-bottom, 1536-well tissue-culture treated plates. 2; Time; overnight culture at 37C with 5% CO2. 3; Compounds and control; 23 nL; Kalypsis pin tool (Wako USA) equipped with a 1536-well pin head to transfer to the assay plates. 4; Time; 48 hours; 37C with 5% CO2. 5; Reagent; 4 uL; CellTiter-Glo luminescent substrate mix. 6; Time; 20 min at room temperature. 7; Detection; Luminescence; ViewLux plate reader NOTES (numbers refer to Sequence numbers above) 1. SW13 cells were harvested from a T175 flask and resuspended in ITS-supplemented DMEM serum-free medium at a concentration of 300 000 cells/mL. Then 5 uL of resuspended cells were dispensed into each well of white, solid-bottom, 1536-well tissue-culture-treated plates using a multidrop combi dispenser. The plates were covered with stainless steel gasket lids. 2-3. The plates were cultured overnight at 37C with 5% CO2. Twenty-three nL of compounds (eight selected concentrations from the NPC / MIPE) or positive control (10 mM stock of bortezomib) in DMSO was transferred to each well of the assay plate using a pin tool (Kalypsys, San Diego, CA, USA). The final concentration of the compounds in the 5 uL assay volume ranged from 0.5 nM to 46 uM. 4-6. After 48 hours of incubation at 37C and 5% CO2, 4 uL of CellTilter-Glo luminescent substrate mix (Promega, Madison, WI, USA) was added to each well. Then the plates were incubated for 20 minutes at room temperature. 7. After incubation, luminescence was measured using a ViewLux plate reader (PerkinElmer, Waltham, MA, USA) with a clear filter was used to measure the number of metabolically competent cells. To determine compound activity in the qHTS assay, the titration-response data for each sample was plotted and modeled by a four-parameter logistic fit yielding IC50 and efficacy (maximal response) values. […] REFERENCES: Inglese J, Shamu CE and Guy RK, Reporting data from high throughput screening of small molecule libraries, Nature Chemical Biology, 2007, 3(8): 438-441. doi.org/10.1038/nchembio0807-438.
# On the % scale 0 is the no-effect control and ±100 the full control effect; tags describe the fitted curve by direction and shape.
Compound,activity (max response),Potency
C=CCN1CC[C@]23c4c5ccc(O)c4O[C@H]2C(=O)CC[C@@]3(O)[C@H]1C5,inactive: -2.59%,–
COP(=O)(OC)OC=C(Cl)Cl,inactive: 13.5%,–
FC(F)(F)c1cccc(C2=CCN(CCc3ccc4ccccc4c3)CC2)c1,–,"inconclusive: 23.1 µM [cytotoxic, single point]"
COc1ccc2c(c1OC)CN1CCc3cc4c(cc3C1C2)OCO4 (stereo not given),–,"inconclusive: 9.2 µM [cytotoxic, partial curve]"
C1CN2CCC1CC2,inactive: 2.77%,–
CN1C[C@H](CNC(=O)OCc2ccccc2)C[C@@H]2c3cccc4c3c(cn4C)C[C@H]21,–,"inconclusive: 18.4 µM [cytotoxic, single point]"
O=C(O)c1nn(Cc2ccc(Cl)cc2Cl)c2ccccc12,inactive: 8.06% and inactive: -12.7%,–
C[C@]12CC[C@@H]3c4ccc(OC(=O)N(CCCl)CCCl)cc4CC[C@H]3[C@@H]1CC[C@@H]2O,–,"inconclusive: 18.4 µM [cytotoxic, single point]"
Nc1ccc([N+](=O)[O-])cc1,–,"inconclusive: 25.1 µM [cytotoxic, partial curve]"
O=C(O)C1=CCCN(CCOC(c2ccc(C(F)(F)F)cc2)c2ccc(C(F)(F)F)cc2)C1,inactive: -19.1%,–
C[N+]1(C)[C@@H]2CC[C@H]1CC(OC(=O)C(CO)c1ccccc1)C2 (stereo not given in full),inactive: -4.66%,–
CCC1(CC)C(=O)NC(=O)NC1=O,inactive: -9.27%,–
CN(C)[C@@H]1C(=O)C(C(N)=O)=C(O)[C@@]2(O)C(=O)C3=C(O)c4c(O)cccc4[C@@](C)(O)[C@H]3C[C@@H]12,inactive: 15% and inactive: 6.24%,–
CCN1CCN(C(=O)Cc2ccc(Nc3ncc(F)c(Nc4ccc(C(=O)Nc5ccccc5Cl)cc4)n3)cc2)CC1,–,"inconclusive: 2 µM [cytotoxic, full curve]"
CCC1(CC)C(=O)C=CNC1=O,inactive: 0.834%,–
C[C@H]1CNCCc2ccc(Cl)cc21,inactive: -1.47%,–
C[C@]12CCC(=O)C=C1CC[C@@H]1[C@H]3CC[C@](C)(O)[C@@]3(C)CC[C@@H]12,–,"inconclusive: 4.47 µM [cytotoxic, full curve]"
CC[C@@H](CO)NC(=O)[C@@H]1C=C2c3cccc4[nH]cc(c34)C[C@H]2N(C)C1,inactive: -27.7%,–
CC(=O)O[C@@]12CO[C@@H]1C[C@H](O)[C@@]1(C)C(=O)[C@H](O)C3=C(C)[C@@H](O)C[C@@](O)([C@@H](OC(=O)c4ccccc4)[C@H]21)C3(C)C,–,"inconclusive: 35.5 µM [cytotoxic, single point]"
CCN1C[C@]2(OC(=O)c3ccccc3NC(C)=O)CC[C@H](OC)[C@@]34[C@H]5CC6[C@@H](OC)C[C@](O)(C(C[C@@H]23)[C@@H]14)[C@@]5(O)[C@@H]6OC,inactive: -5.39%,–

Compound,activity (max response),Potency
Cc1ccccc1-n1c(Cn2cnc3c(N)ncnc32)nc2cccc(C)c2c1=O,inactive: 9.58%,–
CCNC(=O)CC1N=C(c2ccc(Cl)cc2)c2cc(OC)ccc2-n2c(C)nnc21 (stereo not given),inactive: -19.5%,–
NNc1ccccc1,–,"inconclusive: 23.1 µM [cytotoxic, single point]"
C=C1CC[C@@]2(O)[C@H]3Cc4ccc(O)c5c4[C@@]2(CCN3CC2CC2)[C@H]1O5,inactive: 2.67%,–
CCc1c(C(=O)C(N)=O)c2c(OCC(=O)O)cccc2n1Cc1ccccc1,inactive: -1.25%,–
Nc1ccc([As](=O)(O)O)cc1,inactive: 13.3%,–
Nc1ccc(N=Nc2ccccc2)cc1,–,"inconclusive: 31.6 µM [cytotoxic, single point]"
CC(CCc1ccccc1)NC(C)C(O)c1ccc(O)cc1 (stereo not given),inactive: -14.3%,–
C[C@]12Cc3cn[nH]c3C[C@@H]1CC[C@@H]1[C@@H]2CC[C@@]2(C)[C@H]1CC[C@]2(C)O,inactive: -0.402% and inactive: -24.7%,–
Cc1ccccc1-n1c(Cn2ncc3c(N)ncnc32)nc2cccc(C)c2c1=O,inactive: 2.46%,–
CCN(CC)C(=O)c1ccc(C2=CC3(CCNCC3)Oc3cccc(O)c32)cc1,–,"inconclusive: 35.5 µM [cytotoxic, single point]"
CNC(=O)Oc1cccc2ccccc12,inactive: -8.24%,–
COc1cc(C(=O)N2CC[C@@H](O)[C@@H](N)C2)cc2nc(-c3cc4ccccc4n3CC3CC3)n(C)c12,–,"inconclusive: 35.5 µM [cytotoxic, single point]"
CCCSP(=O)(OCC)SCCC,–,"inconclusive: 56.2 µM [cytotoxic, single point]"
Clc1ccc(CCC(Cn2ccnc2)Sc2c(Cl)cccc2Cl)cc1 (stereo not given),–,"inconclusive: 20.6 µM [cytotoxic, single point] and inconclusive: 25.1 µM [cytotoxic, single point]"
CC(C)NCC(O)c1ccccc1Cl (stereo not given),inactive: 5.55%,–
C[C@@H]1CC2=CC(=O)CC[C@@H]2[C@H]2CC[C@@]3(C)[C@@H](CC[C@]3(C)O)[C@@H]21,–,"inconclusive: 16.4 µM [cytotoxic, single point]"
C=CC[C@]1(O)CC[C@H]2[C@@H]3CCC4=CC(=O)CCC4=C3C=C[C@@]21C,–,"inconclusive: 14.6 µM [cytotoxic, partial curve]"
Clc1ccc(COC(Cn2ccnc2)c2ccc(Cl)cc2Cl)cc1 (stereo not given),–,"inconclusive: 25.9 µM [cytotoxic, single point] and active: 25.1 µM"
CC(C)[N+](C)(CCC(C(N)=O)(c1ccccc1)c1ccccc1)C(C)C,inactive: 1.8%,–
